This is one part of the list.

This test addresses T1, OsWOX13 (Oryza sativa, UniProt Q5QMM3 1-267).
T1 sequence: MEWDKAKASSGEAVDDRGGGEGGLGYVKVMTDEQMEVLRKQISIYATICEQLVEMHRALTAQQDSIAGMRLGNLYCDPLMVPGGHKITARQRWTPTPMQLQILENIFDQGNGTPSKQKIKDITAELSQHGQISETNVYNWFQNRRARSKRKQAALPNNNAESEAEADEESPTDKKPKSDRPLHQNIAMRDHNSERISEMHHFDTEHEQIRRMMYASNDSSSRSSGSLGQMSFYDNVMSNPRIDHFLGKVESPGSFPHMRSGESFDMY
The experiment in a line: protein-binding microarray (RPBM); PBS, 2% BSA, 51.3 ng/ul salmon testes DNA, 50 uM zinc acetate, 200 nM TF, 25 C, 1 h; high values mean tight binding. The following applies: protein: recombinant; tags: N-terminal polyhistidine and DsRed monomer fusion (pET32a); label: CyDye5-dUTP incorporated in the synthesized complementary strand; 3' TTTTT single-stranded linker to array surface; dsDNA, one strand shown. The method in brief:
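Transcription factors were made in E. coli BL21-CodonPlus as N-terminal fusions to a polyhistidine tag and DsRed, then purified on Ni–NTA. After primer extension with Cy5-dUTP and blocking with 2% BSA, a custom Agilent array was exposed for 1 h at 25 °C to 200 nM protein in PBS, 2% BSA, salmon testes DNA and 50 µM zinc acetate. Washed arrays were scanned on an Axon 4000B, and the binding signal is per-feature fluorescence intensity in arbitrary units.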
Take “ATCTATCATTAACTCTCTGATTACCAGTACTAGCGCACTACGGAGTCACCTAGTGCAG”: the binding signal was 19000 fluorescence intensity (a.u.).

For “TATCTAATTGCGAGAGTGAGCGTGAGCGTAGCCGGCCTTGCGGAGTCACCTAGTGCAG”, the binding signal was 11400 fluorescence intensity (a.u.).

“AATAAATGGAGTTTTGTATAATCTGGTCGCCATCAGAGAACGGAGTCACCTAGTGCAG”: the binding signal was 4460 fluorescence intensity (a.u.). For the sequence “TCCTAAAACGATAATTTTGTCAAATTTTCGGGGTTATTAGCGGAGTCACCTAGTGCAG”, the binding signal was 6660 fluorescence intensity (a.u.). For the sequence “AACTGATTAAGTAGAATACCTTGACTAGGATGCTGATATTCGGAGTCACCTAGTGCAG”, the binding signal was 8580 fluorescence intensity (a.u.). Under “CAGTTTCAATCAATCAAGTGGTTGGCAGAGGAATTTAAGCCGGAGTCACCTAGTGCAG” stands 42900 fluorescence intensity (a.u.); under “TGGACCCGATTGATAGGAAACGATAGGCAAATAAACATAACGGAGTCACCTAGTGCAG”, 6110 fluorescence intensity (a.u.).

As to “TCTCTTGATAAGTATAATTATTTTCTAGTTAATCACACTACGGAGTCACCTAGTGCAG”, the binding signal is 13500 fluorescence intensity (a.u.). As to “TTGTAATAATTAAAGCTTAATTAATTACTCTCTCCATTCTCGGAGTCACCTAGTGCAG”, the binding signal was 18000 fluorescence intensity (a.u.). Under “CTCATTAATCTTGCTCATTAATCTTGCAATTAATCCAGAACGGAGTCACCTAGTGCAG” stands 4900 fluorescence intensity (a.u.); under “TGTTTAATGATTTGGGAAGCATGTATGAAGCTACAGGAAGCGGAGTCACCTAGTGCAG”, 14700 fluorescence intensity (a.u.); under “TTTAATTTTGTGGTTCTTGTCAATGTAACACAACAGTAAGCGGAGTCACCTAGTGCAG”, 3320 fluorescence intensity (a.u.). Regarding “CAGTATAGACAGAACCTTAATGGAAAAGGAATCTAGACAGCGGAGTCACCTAGTGCAG”, the binding signal is 12400 fluorescence intensity (a.u.). “ATTAACTGAACTAACAACCCCGCTACTCATACGATCCCGCCGGAGTCACCTAGTGCAG”: the binding signal is 14000 fluorescence intensity (a.u.). Under “AGAATCTCAATCAGTTACTAATTGTGGAGATTGTATTAGGCGGAGTCACCTAGTGCAG” stands 24600 fluorescence intensity (a.u.). Regarding “GGCTGACTGCAGTTCTGCCGTAAGTAAAATGGTGATCAAACGGAGTCACCTAGTGCAG”, the binding signal is 3610 fluorescence intensity (a.u.). On to “GCTGATTTTGACAATAAGTGAATAAGGTTTTAATTTCTCGCGGAGTCACCTAGTGCAG”, for which the binding signal is 22500 fluorescence intensity (a.u.). Under “GAAGAGCCAATCTTATAGCTAATTTATTATATATGTTGGCCGGAGTCACCTAGTGCAG” stands 6300 fluorescence intensity (a.u.); under “TTTATATTGATGTAACCGATTCAAACACTTACGACATGGGCGGAGTCACCTAGTGCAG”, 11400 fluorescence intensity (a.u.); under “CCTCATGATTTACCCTAATAGCGATCATAGTGCTTCACTTCGGAGTCACCTAGTGCAG”, 16900 fluorescence intensity (a.u.). Take “ACAAAATTTATATACGCTTATACAAACTTTGTGTATGTGTCGGAGTCACCTAGTGCAG”: the binding signal is 4170 fluorescence intensity (a.u.). With “CCAACAAATTGGACCTTAATGAAGCTCCACTTGTGACAACCGGAGTCACCTAGTGCAG”, the binding signal is 30300 fluorescence intensity (a.u.). Under “AATAATTAAAACTCAATTAATCACAAGTTATTACCACCTCCGGAGTCACCTAGTGCAG” stands 30800 fluorescence intensity (a.u.); under “TACAATTGAATAATCACCAATTCACCATCAAGAAAATCAGCGGAGTCACCTAGTGCAG”, 19800 fluorescence intensity (a.u.). In the case of “GCATTATTCGTCTATCCATTTTCTCCCATGCTAAATCCAACGGAGTCACCTAGTGCAG” it was 3240 fluorescence intensity (a.u.); in that of “CAAGTTTAGATGACTGATAGATAAGAAAAGCCAGGCAACTCGGAGTCACCTAGTGCAG”, 9830 fluorescence intensity (a.u.).

On to “TCCATAATTATATTTCAATTATATATACTTGCACAAAATTCGGAGTCACCTAGTGCAG”, for which the binding signal is 20400 fluorescence intensity (a.u.). Consider “TTTCCAGATGGATTGCAAACTGTATTGACTATTGAGCAAGCGGAGTCACCTAGTGCAG”, for which the binding signal was 4090 fluorescence intensity (a.u.).

On to “TAATTTAATAGCCAATTCATACAATTGCCTATTATCTGGTCGGAGTCACCTAGTGCAG”, for which the binding signal is 5900 fluorescence intensity (a.u.). Regarding “CCCCGAGACATCGTGCCGGTGATTGCTCGTGATGTGCAATCGGAGTCACCTAGTGCAG”, the binding signal was 5800 fluorescence intensity (a.u.). Turning to “GGAGATTGTTGAATGGTTCCATATTGGTTGTAGAAGGACTCGGAGTCACCTAGTGCAG”, the binding signal is 4100 fluorescence intensity (a.u.). In the case of “CTCTATTTAAAATTTTCTTTCACCCATGAGTTCTTATATTCGGAGTCACCTAGTGCAG” it was 3310 fluorescence intensity (a.u.). As for “CGTATTGATAGTGTGTGAGAGACTGGGTTTGGTGTTTCATCGGAGTCACCTAGTGCAG”, the binding signal was 3440 fluorescence intensity (a.u.). Consider “TGGGGAGGGGAGGGAGAGGTGTCGTCAACAGGGAGGGAGGCGGAGTCACCTAGTGCAG”, for which the binding signal was 3570 fluorescence intensity (a.u.). As for “TTAATTTGCATGTTTGTGGATTGATATATTACATATTGATCGGAGTCACCTAGTGCAG”, the binding signal was 19500 fluorescence intensity (a.u.). In the case of “AATGTGAGCATGTGATTTAAATTTGAGAAAATTCAACTTGCGGAGTCACCTAGTGCAG”, the binding signal is 3660 fluorescence intensity (a.u.). Consider “TGGATGAAAATTTTCCTATAATTATTCCTCTACAACTTATCGGAGTCACCTAGTGCAG”, for which the binding signal is 8310 fluorescence intensity (a.u.). For “GGGTGTTGATAGCACAGATGATTGGATTAATTCCTTGCCTCGGAGTCACCTAGTGCAG”, the binding signal was 32500 fluorescence intensity (a.u.). Turning to “ATATAATTGTCACAAACGAAAGATGAGGGAGGGCAAATAGCGGAGTCACCTAGTGCAG”, the binding signal is 13900 fluorescence intensity (a.u.). Consider “TATAATTATAGTATTTAGAAAATAAATTAAAAGCTAGATCCGGAGTCACCTAGTGCAG”, for which the binding signal is 17800 fluorescence intensity (a.u.). In the case of “AACGAGATTTGATGAAATTTACTCGACACAAAACAACTCTCGGAGTCACCTAGTGCAG”, the binding signal is 10500 fluorescence intensity (a.u.).

In the case of “TGTTGATGAGTTATACAACTTTGTTGTTGATGACATTTTCCGGAGTCACCTAGTGCAG”, the binding signal is 6330 fluorescence intensity (a.u.). Regarding “ATTAACCAGCACTCAAATTATTCCTTTGTTTAGTTGTCTGCGGAGTCACCTAGTGCAG”, the binding signal is 3450 fluorescence intensity (a.u.). In the case of “TCCTCTCTTAATTAATTATTAGCTCGTGTTAATTGTTAAACGGAGTCACCTAGTGCAG” it was 32800 fluorescence intensity (a.u.).

As for “GAAATTGATAACATGATTTGTGAAAGGAAAATAAAGCGAACGGAGTCACCTAGTGCAG”, the binding signal is 47000 fluorescence intensity (a.u.).

Turning to “GCTATAATTTATAATGTTTGGTTGCACGTTCTGTACATGGCGGAGTCACCTAGTGCAG”, the binding signal is 28900 fluorescence intensity (a.u.). As for “ATTCAAATTATTCAAATTTGAATACTTTTGTCTCAAAATTCGGAGTCACCTAGTGCAG”, the binding signal was 11000 fluorescence intensity (a.u.). In the case of “AATAAATAAATAAATAAATAATAAACTCGATCGGGTCGGGCGGAGTCACCTAGTGCAG”, the binding signal is 7460 fluorescence intensity (a.u.).

Take “TGTATCTTGCGCACAATAAATTAACTGGGAATTTGCCTTCCGGAGTCACCTAGTGCAG”: the binding signal was 3480 fluorescence intensity (a.u.). Take “TATTTAATTTTACATATTTTCTTAATAATCGTCTCTAACTCGGAGTCACCTAGTGCAG”: the binding signal is 8140 fluorescence intensity (a.u.).

Turning to “GTTGGATTAGCATATCTTGAGATTGACGAAGTTACCATGGCGGAGTCACCTAGTGCAG”, the binding signal was 16800 fluorescence intensity (a.u.).

As for “TGCTTAATTTCCATTGATTCGAACTGTAGTTGCACGCGCGCGGAGTCACCTAGTGCAG”, the binding signal is 6300 fluorescence intensity (a.u.).

Regarding “AACAAGATGGAACTGACAGCTAGATCCTATGTGCAGTTGACGGAGTCACCTAGTGCAG”, the binding signal is 3170 fluorescence intensity (a.u.).

As for “TTAAATAAACAGAGTTACATATTATGATAGTTTGCTTAATCGGAGTCACCTAGTGCAG”, the binding signal was 14000 fluorescence intensity (a.u.).

For the origin of these results see PMC7819943, “Rice protein-binding microarrays: a tool to detect cis-acting elements near promoter regions in rice”.
